Measurements taken from ChEMBL document CHEMBL1201862, “PubChem BioAssay data set” (2004).
Several values for one entry are separate records, joined by “and”; a condition that tells them apart may be missing. Equal entries are not always repeated.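 Following 48 hours of exposure in 96-well plates, responses at five concentrations were used to interpolate endpoints linearly. GI50 is the concentration that inhibits growth by half.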 Activity calls are given as the source filed them. Cut-off read from the data, not from the text of the source: active = GI50 up to about 1.1 µM and inactive = higher.

tested on: NCI-H322M; assay: NCI tumour cell line growth inhibition, 48 h

| Structure (SMILES) | GI50 |
| --- | --- |
| C/C(=N\NC(=S)N1CCC(N2CCCCC2)CC1)c1ccccn1 | inactive: 2.52 µM |
| COC(=O)C(C(=O)C(=O)Nc1nc2ccc([N+](=O)[O-])cc2s1)c1nc2ccc(Cl)cc2nc1O (stereo unspecified) | inactive: > 100 µM |
| Cc1cc(C)c(C2=NO[C@@H]3[C@H]2C(=O)C=C2N(Cc4ccccc4)CCO[C@@]23O)c(C)c1 | inactive: > 100 µM |
| CN(C)c1ccc(/C=N/NC(=S)Nc2ccccc2)cc1 | inactive: > 100 µM |
| CC(=O)NCc1c(C(N)=O)ncn1Cc1ccccc1 | inactive: > 100 µM |
| NS(=O)(=O)C1CCCCC1C(=O)NNC(=O)C(=O)Nc1nnc(S)[nH]1 (stereo unspecified) | inactive: > 100 µM |
| COc1ccccc1NC(=S)N/N=C(/c1ccccc1)c1ccccn1 | active: 0.0267 µM |
| CC1SC2(CCCCC2)N(NC(=O)CSc2nc3ccc(Cl)cc3c(=O)n2-c2ccccc2)C1=O (stereo unspecified) | inactive: 32.7 µM |
| O=C(O)c1cc(N(Cc2ccccc2O)Cc2cc(O)ccc2O)ccc1O [LAVENDUSTIN A] | inactive: > 100 µM |
| COCCOCOc1ccc(OCOCCOC)c2c1C(=O)c1ccccc1C2=O | inactive: 67.1 µM |
| CN1CCCN2CCN(C)CCN(CC1)CC2 | inactive: > 100 µM |
| CN1CCN([C@H]2C[C@H]3[C@@H]4CC=C5C[C@@H](O)CC[C@]5(C)[C@H]4CC[C@]3(C)C2=O)CC1 | inactive: > 100 µM |
| Cc1c(O)c(OC2OC(CO)C(O)C(O)C2O)cc2c1C=C[C@@H]1[C@@]2(C)C(=O)C[C@]2(C)[C@@H]([C@@](C)(O)C(O)/C=C/C(C)(C)O)[C@H](O)C[C@@]12C (stereo partly specified) | inactive: > 100 µM |
| COc1c2c(cc3oc(C)cc(=O)c13)OC(=N)C(C(N)=O)C2CC(=O)c1ccc(N)cc1 (stereo unspecified) | inactive: 53.1 µM |
| Cc1cccc(C)c1Nc1nc(C)c(C(=O)CC(=O)C(=O)Nc2c(C(C)C)cccc2C(C)C)s1 | inactive: > 100 µM |
| N#C[BH2-][n+]1ccc(C(=O)NNCc2cccc(C(F)(F)F)c2)cc1 | inactive: 15.7 µM |
| C(=C\c1cc[n+](CCc2ccccc2)cc1)/c1ccccc1 | inactive: 18.2 µM |
| Cc1n[nH]c(=O)n1Nc1ccccc1 | inactive: > 100 µM |
| Clc1ccc(CN2COc3c(cc(Cl)c4cccnc34)C2)cc1 | inactive: 3.52 µM |
| N#Cc1cc([N+](=O)[O-])ccc1NC(=O)C(=O)C(C(=O)c1ccc2ccccc2c1)C1OCc2ccccc21 (stereo unspecified) | inactive: 10.6 µM |
| O=[N+]([O-])c1ccccc1S(=O)(=O)c1ccccc1 | inactive: > 100 µM |

| Structure (SMILES) | GI50 |
| --- | --- |
| Cc1cc(C)nc(NS(=O)(=O)c2ccc(NC(=O)COC(=O)c3cccc4c(=O)c5ccccc5[nH]c34)cc2)n1 | inactive: 25.9 µM |
| NC(=O)Nc1ccc(C(=O)NCCCNC(=O)c2ccc(NC(N)=O)cc2)cc1 | inactive: > 100 µM |
| CCOC(=O)c1csc(CCCCCCc2nc(C(=O)OCC)cs2)n1 | inactive: > 100 µM |
| Cc1ccc(S(=O)(=O)N2CCN(S(=O)(=O)c3ccc(C)cc3)Cc3ccccc3C2)cc1 | inactive: 49.5 µM |
| COC(=O)C1C(=O)NC2(C)CC1c1ccccc1O2 (stereo unspecified) | inactive: > 100 µM |
| C[C@]12CCC(=O)C=C1CC[C@@H]1[C@@H]2CC[C@]2(C)C(=O)/C(=C\c3ccccc3)C[C@@H]12 | inactive: 46.9 µM |
| CCCCCCCCOCC(O)COC(=O)CCCCCCC (stereo unspecified) | inactive: > 100 µM |
| O=[PH](O)c1cc2c3ccccc3ccc2c2ccccc12 | inactive: > 100 µM |
| COc1ccc(/C=C2/C(=O)N(C(=O)c3ccccc3O)N=C2C)cc1OC | inactive: 1.79 µM |
| O=C1CC(c2cccc([N+](=O)[O-])c2)C2(C(=O)NC(=S)NC2=O)C(c2cccc([N+](=O)[O-])c2)C1 (stereo unspecified) | inactive: 12.2 µM |
| CC(=O)c1cccc(NCn2nnc3ccccc32)c1 | inactive: > 100 µM |
| O=C(OCc1ccccc1)N1CCN(C(=O)OCc2ccccc2)CCN(C(=O)OCc2ccccc2)CCN(C(=O)OCc2ccccc2)CCN(C(=O)OCc2ccccc2)CC1 | inactive: > 100 µM |
| Cc1c2cccc-2ccc2c1[nH]c1ccc(Br)cc12 | inactive: 13 µM |
| COc1ccc2cc3[n+](cc2c1OC)CCc1cc(O)c(O)cc1-3 | inactive: > 100 µM |
| CC(OC(C)(C)C)[C@H](NC(=O)OCC(Cl)(Cl)Cl)C(=O)O (stereo partly specified) | inactive: > 100 µM |
| CC(C)[Si](OC1=CCC[C@H]2NC(=O)[C@@H](Cc3ccc([N+](=O)[O-])cc3)[C@@]12C)(C(C)C)C(C)C | inactive: 14.7 µM |
| O=C1C2Cc3ccccc3CN2C(=O)N1CN1CCN(CN2C(=O)C3Cc4ccccc4CN3C2=O)CC1 (stereo unspecified) | inactive: > 100 µM |
| Cc1ccc2c(sc(-c3ccc4c(c3)sc(-c3ccc(N(C)C)cc3)[n+]4C)[n+]2C)c1S(=O)(=O)O.Cc1ccc2c(sc(-c3ccc4c(c3)sc(-c3ccc5c(c3)sc(-c3ccc(N(C)C)cc3)[n+]5C)[n+]4C)[n+]2C)c1S(=O)(=O)O | inactive: > 100 µM |
| C/C(=N\NC(=O)N/N=C(\C)c1ccccn1)c1ccccn1 | inactive: 27.4 µM |
| CCOC(=O)c1cc2c(=Cc3ccc(N(C)C)cc3)c3ccccc3n2[n+]1C | inactive: 1.41 µM |
| CC(=O)Oc1c2ccsc2c(OC(C)=O)c2ccsc12 | inactive: 1.15 µM |

| Structure (SMILES) | GI50 |
| --- | --- |
| Cc1n(-c2ccccc2)c2c([n+]1Cc1ccc([N+](=O)[O-])cc1)C(=O)c1ccccc1C2=O | inactive: 2.49 µM |
| O=C(CC(O)(C(F)(F)F)C(F)(F)F)C(CCCl)C(O)(C(F)(F)F)C(F)(F)F (stereo unspecified) | inactive: 31 µM |
| COC(=O)c1c(O)ccc2c1c1c(n2Cc2cc(OC)cc(OC)c2)C(=O)c2ccccc2C1=O | inactive: 17.5 µM |
| O=C(Nc1ccccc1)c1cc(S(=O)(=O)Nc2n[nH]c(=O)[nH]2)c(SSc2cc(Cl)c(C(=O)Nc3ccccc3)cc2S(=O)(=O)Nc2n[nH]c(=O)[nH]2)cc1Cl | inactive: > 100 µM |
| N=C(N)N/N=C(/CC1OC(=O)c2ccccc21)c1ccc2ccccc2c1 (stereo unspecified) | inactive: 18.9 µM |
| CC/C(C)=C1\CCC(CN2CCOCC2)C1=O (stereo unspecified) | inactive: 67.1 µM |
| CC[C@H]1C[C@@H](O)[C@@H]2[C@H](O)[C@H](O)CN2C1 | inactive: > 100 µM |
| CCOC(=O)c1cc(I)c(-c2cc(C)no2)n1C | inactive: > 100 µM |
| NNC(=O)c1ccc[n+](CCc2ccccc2)c1 | inactive: > 100 µM |
| CC(C)OC(=O)[C@@H]1OC(C)(C)O[C@H]1C(=O)OC(C)C | inactive: > 100 µM |
| COc1ccc(-c2nc(N)c(C#N)c3c2CCSc2ccc(C)cc2-3)cc1OC | inactive: 44.4 µM |
| CC1=CC(=O)N(n2c(Cc3ccccc3)n[nH]c2=O)C1=O | inactive: > 100 µM |
| COS(=O)c1cc(Cl)cc(Cl)c1O (stereo unspecified) | inactive: > 100 µM |
| COc1ccc2nc(NC(=O)C(=O)C(C(=O)c3ccccc3-c3ccccc3)C3OC(=O)c4ccccc43)sc2c1 (stereo unspecified) | inactive: 19.5 µM |
| CN(Cc1ccccc1)C1(N(C)Cc2ccccc2)CC1 | inactive: > 100 µM |
| Cc1cc(Cl)cc2c1NC(=O)C2(O)C(C(=O)c1ccccc1)c1ccccc1 (stereo unspecified) | inactive: > 100 µM and inactive: 86.1 µM |
| O=C1CSC(c2cccc(Oc3ccccc3)c2)N1c1ccc(Cl)cc1 (stereo unspecified) | inactive: 71.3 µM |
| CCOC(=O)NC(=S)NN(C)C1=NCC(C)(C)S1 | inactive: > 100 µM |
| COP(=O)(OC)c1ccc(NCc2cc(O)ccc2O)cc1 | inactive: > 84.7 µM |
